Laboratory results from the RNAGym collection of RNA variant scans (doi:10.7554/elife.90254).
The source gives no read counts; variants with many changes may rest on few reads.

B1: LINE1-mini (parent)
chain: GGCAGAGCUCAACACAGCGUGGCAAAGUGGCUGUGGCUAGACUGCC

Variants of: B1
Assay: self-cleavage, relative activity (ratio to wild type); higher = more cleavage; in vitro, sequencing; the parent is a self-cleaving ribozyme
A4U A12G G17A U34C showed a self-cleavage of 0.09.
A4G U9A G30A G44C gave a self-cleavage of 0.05.
Variant A4U A16G A26C has a self-cleavage of 0.13.
A4U C10A A16C gave a self-cleavage of 0.03.
A4U A6C U32G gave a self-cleavage of 0.04.
A4U A6U C10U G22U G40U showed a self-cleavage of 0.03.
In the case of A4U A26G C42G, the self-cleavage is reported as 0.02.
With A4U A6G G19A the self-cleavage was 0.04.
Variant A4U C10A A16C G44A has a self-cleavage of 0.02.
For A4U C8A A25G, the self-cleavage was 0.07.
A4U A16C G19U C46U gave a self-cleavage of 0.05.
Work on A4U A12G A16G yielded a self-cleavage of 0.02.
With A4G U9A C15G G19A A25G U38G G44A the self-cleavage was 0.05.
A4U A12U G33A gave a self-cleavage of 0.12.
With A4U C8U G17A U20A G22C the self-cleavage was 0.15.
With A4U A16G G36C the self-cleavage was 0.02.
A4U A16G G17U showed a self-cleavage of 0.14.
In the case of A4U A11U C15A G33A, the self-cleavage is reported as 0.02.
A4U A6G U9G U20G C37G gave a self-cleavage of 0.01.
For A4U C8U C31U, the self-cleavage was 0.05.
For A4U A11G C23A A26U C31G U38A G40U, the self-cleavage was 0.
Variant A4U C8G C18A G40U has a self-cleavage of 0.01.
A4U A14U G33C showed a self-cleavage of 0.24.
Work on A4U C8A A16U U34G G35C A39C G40U yielded a self-cleavage of 0.11.
Variant A4U A6G C13G C23A C42A has a self-cleavage of 0.08.
Variant A4U C8U U34G U38G has a self-cleavage of 0.05.
In the case of A4U A12U G40A, the self-cleavage is reported as 0.01.
For A4U C8A G19U G33A, the self-cleavage was 0.36.
With A4U A16U U38G the self-cleavage was 0.
In the case of A4U A6U C23U G27A, the self-cleavage is reported as 0.07.
For A4U C10A A14U U20C, the self-cleavage was 0.01.
Variant A4U A25G U34C has a self-cleavage of 0.05.
Variant A4U C8A A16C G30U U34G G35U C45A has a self-cleavage of 0.02.
Work on A4U A12U G17C A24C yielded a self-cleavage of 0.05.
Variant A4G U32A C37G has a self-cleavage of 0.
A4U A16C G22U A26U G44U gave a self-cleavage of 0.02.
With A4G U28G C37U U38A G44A the self-cleavage was 0.03.
With A4U A12G C15U A24G U34G C45G the self-cleavage was 0.01.
A4U A11C C37U gave a self-cleavage of 0.02.
Variant A4U C8U A16G U20A G21A G27A has a self-cleavage of 0.08.
A4U A6C U9G C18G C23A C46A showed a self-cleavage of 0.48.
A4G U9G G30C U34C C42A showed a self-cleavage of 0.01.
In the case of A4U A16C G29C, the self-cleavage is reported as 0.05.
In the case of A4U A6G C18A, the self-cleavage is reported as 0.11.
Variant A4U C8G A12U has a self-cleavage of 0.06.
For A4U A11C G29U, the self-cleavage was 0.05.
With A4U C8A G21U G22U the self-cleavage was 0.28.
Work on A4U A39C G40A G44A yielded a self-cleavage of 0.01.
A4U A16C U28C U43A gave a self-cleavage of 0.06.
In the case of A4G G35U A39C, the self-cleavage is reported as 0.04.
Variant A4U C8A C13U G40A has a self-cleavage of 0.06.
With A4U A16C G21C G33C A39C G44C the self-cleavage was 0.02.
With A4G U9C G17U A24U U28A C37A the self-cleavage was 0.02.
Variant A4U C8A G36A has a self-cleavage of 0.22.
A4U A11C A16C G21C U32A G40A gave a self-cleavage of 0.02.
A4U C8G G22A C46G showed a self-cleavage of 0.06.
In the case of A4U A11C G44U, the self-cleavage is reported as 0.02.
Work on A4G U9A U32G yielded a self-cleavage of 0.03.
Variant A4U A11C A12G A26U has a self-cleavage of 0.03.
With A4G U9G G35C C37A the self-cleavage was 0.01.
A4U A11G G21A showed a self-cleavage of 0.02.
For A4G U9C C10A G21A C31A G36C C37A, the self-cleavage was 0.01.
Work on A4G U20A U43A yielded a self-cleavage of 0.09.
For A4U A12G C31A C46U, the self-cleavage was 0.03.
A4U C8G C15G C23A G27C G33U G36A showed a self-cleavage of 0.03.
Variant A4U C8G G27C has a self-cleavage of 0.11.
For A4U A16G C31U U34C C37G, the self-cleavage was 0.
A4G U9G A11G gave a self-cleavage of 0.11.
In the case of A4U A6U A12C, the self-cleavage is reported as 0.01.
With A4U A26U G27A the self-cleavage was 0.03.
Work on A4U C8U C10A C42U G44C yielded a self-cleavage of 0.03.
A4U A14U G17A A26G A41G C42U showed a self-cleavage of 0.2.
For A4U A12C C31G, the self-cleavage was 0.04.
For A4U A11C C15U G36C, the self-cleavage was 0.02.
With A4U A11G A14G U43C the self-cleavage was 0.
A4U A26U U34G G44C showed a self-cleavage of 0.03.
Work on A4U A25G U28G yielded a self-cleavage of 0.1.
A4U C10A A11C G17U showed a self-cleavage of 0.07.
A4U A25C G44A showed a self-cleavage of 0.21.
Work on A4U A11G G27A yielded a self-cleavage of 0.01.
Variant A4U A12U A14G U28A G35C has a self-cleavage of 0.07.
With A4U A12G C15G the self-cleavage was 0.03.
A4U A6G U9C G29A C42G C45A C46A showed a self-cleavage of 0.02.
